Results reported in PubChem BioAssay AID463173 (ICCB-Longwood Screening Facility, Harvard Medical School, 2010).
Out of some 52,000 compounds screened, about 4,300 (8.3%) were called active. Cut-off read from the data, not from the text of the source: active = survival mostly below about 52% (no sharp cut-off); inactive = mostly above about 56%. The list shows a part of the results.

The compounds below were run on DeltatarO mutant (assay: S. aureus survival, RN4220 and DeltatarO strains – OD600, teichoic acid synthesis inhibitors, primary screen (AID 463173)). Conditions: S. aureus RN4220 wild type/DeltatarO growth, OD600, 18 h, stronger effect = lower value, screened at 18.75 µg/mL (by protocol).

Compound	survival
O=C(CSCc1ccc(F)cc1)N1CCN(c2ccccc2F)CC1	inactive: 102%
Cc1cc2c(cc1S(=O)(=O)NCc1ccc(F)cc1)n(C)c(=O)c(=O)n2C	inactive: 82%
C=CCN=C1SCC(=O)N1S(=O)(=O)c1ccc(C)cc1	active: 60%
CCc1ccc(NC(=O)CSc2ccnc(=O)[nH]2)cc1	inactive: 78%
COc1cccc(C(=O)NCC2OCCc3ccccc32)c1 (stereo not given)	inactive: 57%
Cc1nn(C)c(C)c1S(=O)(=O)N(CC(=O)NCCc1ccccc1)c1ccc(C(C)C)cc1	inactive: 85%
CCOC(=O)c1oc2ccc(Br)cc2c1N	inactive: 80%
COc1ccc(CCC(=O)NCCc2csc(-c3ccc(F)cc3)n2)cc1	inactive: 73%
CC(C)c1nc2ccccn2c1NC1CCCCC1	inactive: 102%
Cc1ccc(-c2nn3c(-c4ccccc4C)nnc3c3ccccc23)cc1	inactive: 40%
Cc1cn2c(=O)cc(COC(=O)c3ccc(NC(=O)COc4ccccc4C)cc3)nc2s1	inactive: 95%
CCOC(=O)c1cc(-c2ccccc2)n(-c2cccc(C(=O)Nc3cccc(SC)c3)c2)c1C	active: 32%
CCc1ccc(-n2c(=O)c3c4c(sc3n(Cc3ccccc3C#N)c2=O)CCCC4)cc1	inactive: 139%
CCCn1c2ccccc2c2cnn(CC(=O)Nc3cc(C)c(Cl)cc3OC)c(=O)c21	inactive: 118%
CC1CCc2c(sc(NC(=O)Cc3ccccc3)c2C(=O)Nc2ccc(Cl)cc2)C1 (stereo not given)	inactive: 57%
COc1ccc(OC)c(NC(=O)CSc2nc(=O)n(CCN(C)C)c3c2CCC3)c1	inactive: 67%
CCc1ccccc1NC(=O)N1CCOc2ccccc21	inactive: 106%
O=C(Cn1ncc2c([nH]c3ccccc32)c1=O)NCCCN1CCN(c2ccc(F)cc2)CC1	inactive: 89%
CCCOc1ccc(C2C(=O)N(C3CCCCCC3)CC(=O)N2Cc2ccccc2OC)cc1OC (stereo not given)	inactive: 94%
O=C(CCn1c(=O)c2sccc2n(Cc2ccccc2F)c1=O)NCc1ccc2c(c1)OCO2	active: 84%
CCc1cccc(NC(=O)CCn2c(=O)c3cccn3c3cccnc32)c1	inactive: 91%
Cc1ccc(Nc2ccc3cc(S(=O)(=O)N4CCC(C)CC4)ccc3n2)c(Cl)c1	inactive: 88%
CCOc1ccc(-n2cc(-c3ccccc3)c3c(NCCc4ccccc4)ncnc32)cc1	inactive: 95%

Compound	survival
Cc1cccc(NC(=O)Cn2nc(-c3ccccc3)c3cnc4ccccc4c32)c1	inactive: 92%
CCOC(=O)N1CCc2c(sc3c2c(=O)n(Cc2ccccc2)c(=O)n3CC(=O)Nc2cccc(CC)c2)C1	inactive: 71%
CCc1ccc2nc(N(Cc3cccnc3)C(=O)c3ccc(C#N)cc3)sc2c1	inactive: 73%
Cc1ccc(N2CCN(C(=O)c3nn(C)c4c3CS(=O)(=O)c3ccccc3-4)CC2)c(C)c1	inactive: 77%
CC(=O)Nc1ccc(NC(=O)c2oc3c(c2C)-c2nn(Cc4ccccc4Cl)cc2CC3)cc1	inactive: 61%
CCCCC(=O)Nc1ccc2nc(SCC(=O)N3CCc4ccccc43)sc2c1	inactive: 104%
O=C(Nc1ccc(F)cc1F)C1CCN(c2ncccn2)CC1	inactive: 58%
O=C(Cn1nnc(-c2ccncc2)n1)N(C1CCCCC1)C1CCCCC1	inactive: 102%
O=S(=O)(c1ccc(C2CCCCC2)cc1)N1CCN(c2ccc(Cl)c(Cl)c2)CC1	active: 54%
Cc1ccccc1NC(=O)Cn1cc(C(=O)c2ccco2)c2ccccc21	inactive: 45%
CCC(c1nnnn1C1CCCC1)N1CCN(Cc2ccccc2)CC1 (stereo not given)	inactive: 99%
Cc1ccc(C)c(N2CCN(c3ncnc4c3nc3n4CCCC3)CC2)c1	inactive: 117%
O=C(CCNS(=O)(=O)c1ccc2c(c1)CCCC(=O)N2)Nc1cccc(Cl)c1	inactive: 88%
COc1ccc(C(=O)c2c(N)c(-c3nc(-c4ccc5c(c4)OCO5)cs3)c3ccccn23)cc1	inactive: 103%
O=C(NCCc1ccccc1)c1ccc(CS(=O)Cc2ccc(Cl)cc2)o1 (stereo not given)	inactive: 74%
Cc1cc(NC(=O)CCc2nc3cccnc3n2-c2ccccc2)ccc1Br	active: 31%
COc1cc(NC(=O)Cn2nc(C(F)(F)F)c3c2CCC3)cc(OC)c1OC	inactive: 130%
COc1cc(OC)cc(-c2cc3nc(C)c(CCC(=O)NCCc4cccc(C)c4)c(C)n3n2)c1	inactive: 75%
COc1ccc(OC)c(CNC(=O)c2ccc(N3Cc4ccccc4Oc4ncccc43)s2)c1	inactive: 82%
O=C(CCn1c(=O)c2ccccc2n(CC(=O)Nc2cccc(F)c2)c1=O)NCCc1ccccc1	inactive: 90%
CC1CCCN(CCCNC(=O)c2cc(Sc3ccc(F)cc3)nc3ccccc23)C1 (stereo not given)	inactive: 55%
CCOC(=O)c1c(C)[nH]c(C)c1S(=O)(=O)N(C)CC(=O)Nc1ccc(OC)cc1	inactive: 86%
Cc1cccc(Cn2cc(S(=O)(=O)c3cccc(Cl)c3)c(=O)c3cc(F)c(N4CCOCC4)cc32)c1	inactive: 85%

Compound	survival
Cn1c(=O)c2nc(SCC(=O)Nc3ccc(OC(F)(F)F)cc3)n(C)c2n(C)c1=O	inactive: 83%
COc1ccc(CC(=O)Nc2c(C(=O)N3CCN(c4ccccc4)CC3)oc3ccccc23)cc1OC	inactive: 75%
COc1cc(C(CC(=O)Nc2ccc(C)c(F)c2)N2Cc3ccccc3C2=O)cc(OC)c1OC (stereo not given)	inactive: 93%
COc1ccc(-c2nc(CNC(=O)NC3CCCCC3)c(C)o2)cc1	inactive: 113%
CCN(CC)c1ncnc2c1cnn2-c1cc(Cl)ccc1C	active: -5%
O=C1OCC2=C1C(c1cccc(Cl)c1)CC(=O)N2c1ccc(C(F)(F)F)cc1 (stereo not given)	inactive: 57%
CCOc1ccccc1NC(=O)C1CCN(S(=O)(=O)c2c(C)noc2/C=C/c2ccco2)CC1	inactive: 72%
O=C(NCCc1ccc(Cl)cc1)c1c2c(nc3ccccc13)C(=O)N(C1CCCCC1)C2	inactive: 92%
COCC(C)NCc1ccc(SC)cc1 (stereo not given)	inactive: 63%
Cc1csc2nc(COC(=O)c3ccccc3NC(=O)c3cccc(Br)c3)cc(=O)n12	inactive: 87%
O=S(=O)(c1ccc(Br)s1)N1CCN(c2cccc(C(F)(F)F)c2)CC1	inactive: 53%
COCCn1c(SCC(=O)Nc2cc(Cl)ccc2OC)nc2c([nH]c3ccccc32)c1=O	inactive: 113%
O=C(NC1CCN(C(=O)Nc2ccccc2C(F)(F)F)CC1)c1ccco1	inactive: 89%
COC(=O)/C(C#N)=C/c1ccc(OC)cc1	inactive: 79%
Cc1noc(-c2ccc(-c3noc(-c4ccc(F)cc4)n3)cc2)n1	inactive: 72%
CCOC(=O)c1cccc(NC(=O)CCSCCc2ccccn2)c1	inactive: 87%
O=C(CCCn1c2ccccc2c(=O)c2ccccc21)Nc1cccc(Cl)c1	active: 27%
Cc1ccc(NC(=O)Cn2nc(-c3ccccc3)nc(Cc3ccc(Cl)cc3)c2=O)cc1	inactive: 94%
COc1cc(C2Nc3ccccc3-c3cc(C)nn32)ccc1O (stereo not given)	inactive: 121%
COc1ccccc1OC(C)C(=O)Nc1cccc(-c2nc3ccccc3s2)c1 (stereo not given)	active: 37%
COc1ccc(-n2nc(C(=O)Nc3ccccn3)c3c4ccccc4n(C)c3c2=O)cc1	inactive: 72%
CCOC(=O)c1ccc(NC(=O)c2cnc3c(-c4ccc(F)cc4)c(C)nn3c2C)cc1	inactive: 108%
Cc1cc(C)n(-c2nc3ccccc3nc2Nc2ccc(N(C)C)cc2)n1	active: -2%

Compound	survival
CCOc1ccc(-c2nc3c(c(SCC(=O)Nc4ccccc4C)n2)Cc2ccccc2O3)cc1	inactive: 117%
CCCCN(C(=O)c1cc(OC)c(OC)c(OC)c1)C1=CC2CCC(C1)N2C (stereo not given)	inactive: 111%
Cc1cc(C)cc(NC(=O)Cn2c(-c3cncs3)nc3ccccc32)c1	active: 37%
Cc1ccccc1NC(=O)CC(NCc1cccnc1)C(=O)O (stereo not given)	inactive: 86%
CCOc1ccc(C(=O)Cn2c(=O)n3nc(CCn4nc(C)cc4C)nc3c3cc(OC)c(OC)cc32)cc1	inactive: 98%
Cc1cccc(N(C)c2nc3ccccc3c3nnc(C)n23)c1	inactive: 118%
COc1cc(NC(=O)c2cc(C3CC3)nc3c2c(C)nn3-c2ccccc2)cc(OC)c1	inactive: 91%
COC(=O)Cn1c(=O)c2cccn2c2ccc(F)cc21	inactive: 91%
Cc1ccccc1N1CCN(S(=O)(=O)c2nnc(NC(=O)c3ccc(C(C)C)cc3)s2)CC1	active: 38%
CCCCCn1c(NCc2ccc(OC)cc2)nc2ccccc21	active: 33%
Cc1ccc(NC(=O)CSc2nnc(-c3ccc([N+](=O)[O-])cc3)o2)c(C)c1	inactive: 73%
Cc1ccc(C(=O)c2cn(CC(=O)Nc3ccc(C(C)C)cc3)c3nc(C)ccc3c2=O)cc1	inactive: 69%
CCS(=O)(=O)N1CCCC(C(=O)NCCOC)C1 (stereo not given)	inactive: 78%
CCOc1ccc(CN2CCN(C(=O)c3ccco3)CC2)cc1	inactive: 77%
CCCNC(=S)N1CCC(NC(=O)Nc2ccc(C)cc2)CC1	inactive: 66%
CN(C)c1ccc(CNC(=O)c2ccc(Cn3c(SCc4ccccc4)nc4cccnc43)cc2)cc1	inactive: 87%
Cc1ccccc1CNC(=O)c1ccc2c(c1)c(C)c(C)n2C	inactive: 85%
CCc1ccc(CNC(=O)c2cnc3sc(N4CCCC4)nn3c2=O)cc1	inactive: 94%
CCCCN(C)C(=O)C1CCN(Cc2ccc(OCc3ccccc3)c(OC)c2)CC1	inactive: 118%
Cc1ccc(Cl)cc1NC(=O)C1CCN(c2nnc(C)c3c(C)n(-c4ccccc4)nc23)CC1	inactive: 78%
Cc1ccccc1Cn1nnc2c(=O)[nH]c(C3CCN(C(=O)c4ccc(F)cc4)CC3)nc21	active: 52%
